Data published in the supplement of paper PMC10126150.
Sequences with one replicate were seen in a single cluster, so their values are uncertain.

System: ATP
Assay: switch fluorescence ratio, 500 uM ATP over buffer (Cy3 cluster intensity, sum of 5 cycles each) (fold (ratio)); higher = stronger signal-on switching upon ATP binding; sequences stand for … in TCGTCGGCAGCGTCAGATGTGTATAAGAGACAGTTTTTTTTTTTTTTTTTTTTTTTTT…TC
Settings: aptamer strand: ATP DNA aptamer (quencher-CACCTGGGGGAGTATTGCGGAGGAAGG + anchor), 100 nM annealed; ATP concentration: 500 uM; one replicate
Procedure, shortened: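 Between each of five buffer/ATP cycles, the flow-cell was stripped with NaOH and re-annealed. Each cycle imaged Cy3-labelled switching-strand clusters, annealed to 100 nM quencher-labelled ATP aptamer on a modified Illumina MiSeq flow-cell, first in selection buffer and then after 15 min with 500 uM ATP at 22 °C. The fluorescence ratio is summed target-cycle over summed buffer-cycle Cy3 intensity per cluster, averaged per switch-domain sequence, with clusters outside 100-1000 RFU excluded.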
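Further: ATP exposure 15 min at 22 °C before imaging.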

Sequence | switch fluorescence ratio
CAGGCCCGTG | 0.971
GGTTACATGG | 1.02
TCCATCCCGA | 1.15
TGAAACTGGG | 0.963
AGGAGAATGC | 1.1
CGCATCCG | 1.05
GAACCAGGTT | 1.05
ATGCGGGAGA | 0.961
TCTGTAAGCA | 1.42
CTATTCCATT | 1.01
ACTCCTGAAC | 2.04
ACCTGCAGTT | 1.06
ATTTGGTTCT | 0.951
CCCAGGGTGA | 3.13
GTTCGCCGTT | 0.954
GACGCGGCAT | 1.03
CGGATGCCAA | 1
TTCTGAAAAA | 0.953
ATGGCTTCCA | 1.05
GACCCGGTGT | 1.02
TATGACACGT | 0.995
CCAGGATGAA | 1.07
AAGATCTTA | 1.02

Sequence | switch fluorescence ratio
GAATTGGGTT | 1.02
GTGGATAATA | 0.946
CTACTACGAG | 1.04
GGGAGAAGTT | 1.01
ATTCAAATGC | 0.989
TTAATAATA | 1
GTCTCTGGGA | 1
CCTTTATCTA | 1.01
TGGAGATCGT | 0.998
GAACTGTGCA | 1.02
GGTTCCGGCC | 1.02
AAGTTCTTTC | 1.02
TTGCACTTAA | 1.13
GCTTGCTTTG | 0.982
GCAATGTCAC | 2.65
GCGCGGCGCT | 0.97
CGATTCCCTT | 1.04
CAAAGAACCT | 1.66
CGCAATTGGA | 2.45
AGAGTGGAT | 0.952
TAATACGGCT | 0.981
CAACAATGCC | 1.02
CAAGGAGTG | 0.992

Sequence | switch fluorescence ratio
TAATGCTCCG | 1.14
ATGTAGTG | 0.973
ATTCAGGTTA | 1.04
CGCGAAATAG | 1.04
CATTATATGC | 0.946
TTAGCGGGGC | 1.04
CGCTAGATGT | 0.973
TGTTTAATTA | 0.985
CAAATAGATC | 0.968
TTTGCCCCC | 1.3
GACCTAACCA | 1.03
AATATCGCCG | 1.05
TTCTGGCTGT | 0.991
TCGTCAATGT | 1.15
TTCCATAATG | 0.978
CCAAGTGTCT | 0.984
ATCGATTTAA | 0.981
ACGGGCCGAT | 1.02
AAATTGTGCT | 0.99
TCACGATCCA | 1.02
ATTTGTCTTT | 0.987
TTGCTGGCTT | 1.03
TTTGGCAGCA | 1.44

Sequence | switch fluorescence ratio
GTAATTTCTG | 0.974
TGCTGGGAGG | 0.971
CCAATTCTTT | 0.963
ATGCCCGACA | 1.01
ATTATTTTAG | 0.954
TACTTGGGG | 0.98
TGGTACAATA | 1
ATCGCAGCAT | 1.51
CATTCCGTTA | 1.57
GGGAAGAGT | 0.968
AGCCTACCAA | 1.47
AGTAATTCA | 0.977
TAGAGT | 0.996
ACCCTTCAAC | 1.15
TAGCGAGCA | 0.992
GAGTTACTAG | 1.01
TGGGCGTATG | 0.954
TTCTATAGGG | 0.993
CGTCTTGCTC | 1.02
TTCGCGGTGG | 0.871
AAACCGCAAG | 4.14
TAGGACTAC | 1.06
GGACTTCACC | 1.12

Sequence | switch fluorescence ratio
CTGCTCTACG | 1.06
CCTCGGATTG | 1.12
CCTATTAGAC | 1.17
TACAATATAT | 0.997
AGCTAATAGG | 0.977
CATGTGGAGC | 1.02
TTAACGTAGT | 1.01
GGTGCCAGGA | 1.12
GGCAATAAGG | 1.06
TCATACGCAC | 4.04
TGGCGCACAG | 1.04
GTTTCCTGCT | 0.965
TAAATAGTCT | 0.967
GTGATGATGA | 0.969
CATAATCCCG | 0.977
GAACAAGAGG | 1.02
TCCCTAGTGC | 1.4
TAGGTTATGG | 0.943
TGTTGTTTCC | 1.01
AGCTCCACGT | 1.14
CTACGTGGC | 1.5
GTCTTAGGG | 0.948
TAGTATTGAT | 0.998

Sequence | switch fluorescence ratio
TTTAGCTTG | 1
GTTTAGCTAC | 1.14
TCAAGTTTCT | 0.999
CCTTGGTTGA | 1.03
TATGAGAGT | 0.997
CCGCACCTGT | 1.78
ACAAGACTGA | 1.09
TGTTGGAATA | 1.01
CGGCGTGTCT | 1.04
CGGGATGACC | 0.996
TTGCCACGCA | 1.03
CATCTGGTTG | 1.09
AGTCGCAATA | 2.5
GCTATGTTGG | 0.989
CTGAAAATAA | 0.966
AGGTGGGCCT | 1.06
GCTAGGGAAA | 0.977
GAAACAACGC | 1.05
TCGGTTGACA | 0.951
GCCGACAGCG | 1.02
GGTTTGAAAG | 0.99
TCTGACGGCC | 1.1
GAGTGTCGG | 0.966

Sequence | switch fluorescence ratio
TGAACGGGGC | 1.01
ATATTCTTGA | 0.95
TCCTCGTTAT | 0.999
TCAGACT | 0.999
GACAGTTTGA | 0.981
CCATCGCCCA | 1.22
TGAAAACCGC | 1.12
AAAATGCGAC | 1.09
GATGCGTGTT | 0.944
CCAAGGAGAG | 1.01
TGGTATTGT | 0.957
TTGCCTGGTT | 1.03
CGCAACCTTG | 1.21
TAATACTAGG | 0.985
AAAATATG | 1.01
TTGGTAAATA | 1.03
TTGAGTAGCG | 0.978
ACGGAGCGGA | 1.03
GAGCGCATGA | 1.03
AAAGGTCGTG | 1.01
